{"source": "PubChem BioAssay AID686978", "about": "(National Center for Advancing Translational Sciences (NCATS), 2013)", "note": "Several values for one entry are separate records, joined by “and”; a condition that tells them apart may be missing. Identical values can stand only once. Hit rate of the full screen: of about 420,000 compounds, about 64,000 (15%) were called active. The inconclusive results got no clear call from the source; some entries with a clear call stand among them for comparison. Calls come from the whole dose curve; as a rule, active = well fitted inhibition curve with a large enough effect; inconclusive = small, poorly fitted or top-dose-only effect; inactive = flat fitted curve, though single readings scatter. Potencies of inconclusive entries are left out as doubtful fits. Potency is the fitted concentration of half-maximal effect; tags give direction and shape of the fitted curve.", "data": [{"test": "qHTS for Inhibitors of human tyrosyl-DNA phosphodiesterase 1 (TDP1): qHTS in cells in absence of CPT; note: nearly all actives have a fitted effect of over 55% in size", "conditions": "DT40 Tdp1-/- hTDP1 cells, no CPT, ATP luminescence, 48 h; series mostly up to 46.2 µM", "in_short": "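DT40 Tdp1-/-;hTDP1 cells, no CPT (DMSO vehicle only), 400 cells/well; compounds pin-transferred; ≥48 hr, 37 °C; CellTiter-Glo 30 min RT dark, luminescence read.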", "values": [{"smiles": "O=C(COC(=O)c1ccccc1O)Nc1cccc2ccccc12", "Potency": "inactive"}, {"smiles": "C=CCn1c(N)c(C(=O)N2CCN(C)CC2)sc1=S", "Potency": "inactive"}, {"smiles": "CCCN(CCC)c1ccc(/C=C/c2ccc3cc(OCC)ccc3n2)cc1", "Potency": "active: 23.1 µM"}, {"smiles": "O=C(COC(=O)c1cccc(S(=O)(=O)N2CCCCC2)c1)NCc1cccc(Cl)c1", "Potency": "inactive"}, {"smiles": "CC(C)N(c1ccc(C=O)cc1)C(C)C", "Potency": "inactive"}, {"smiles": "O=C(CSc1n[nH]c(-c2ccccn2)n1)Nc1ccc(Cl)cc1", "Potency": "active: 4.61 µM"}, {"smiles": "O=C(c1ccc(=O)[nH]n1)N1CCN(S(=O)(=O)c2cccc(F)c2)CC1", "Potency": "inactive"}, {"smiles": "Cc1ccc(O)c(C(=O)c2cnc3c(c2)c(=O)n(C)c(=O)n3C)c1", "Potency": "inconclusive [inhibitor, single point]"}, {"smiles": "Cc1ccc(NC(=S)N(CCN(C)C)C(C)c2ccco2)c(C)c1", "note": "(centres undefined)", "Potency": "inconclusive [inhibitor, single point]"}, {"smiles": "BrC(=C\\c1ccccc1)/C=N/N1CCN(c2ccccc2)CC1", "Potency": "active: 7.31 µM"}, {"smiles": "COc1cc(C(=O)NNC(=O)c2ccc(NC(=O)C(C)(C)C)cc2)cc(OC)c1OC", "Potency": "inconclusive [inhibitor, single point]"}, {"smiles": "CN(C)c1ccc(/C=C/c2ccnc3ccccc23)cc1Br", "Potency": "active: 7.08 µM"}, {"smiles": "COCCn1c(=O)c(-c2ccc(OC)cc2)nc2cnc(N3CCNCC3)nc21", "Potency": "inconclusive [inhibitor, single point]"}, {"smiles": "COc1ccc(OCc2nc(-c3ccc(OC)c(OC)c3)no2)cc1", "Potency": "inconclusive [inhibitor, single point]"}, {"smiles": "COC(=O)c1c(NC(=O)c2ccoc2C)sc2c1CCC2", "Potency": "inconclusive [inhibitor, partial curve]"}, {"smiles": "COCCCN1C(=O)C(CC(=O)NCCN2CCOCC2)CC(C(=O)N(C(C)C)C(C)C)=C1C", "note": "(centres undefined)", "Potency": "inconclusive [inhibitor, single point]"}, {"smiles": "CCn1c2ccc(F)cc2c2nnc(NN)nc21", "Potency": "active: 16.4 µM"}, {"smiles": "COC(=O)C1(C(=O)OC)Cc2ccccc2N(S(=O)(=O)c2ccc(C)cc2)C1CC(C)=O", "note": "(centres undefined)", "Potency": "inconclusive [inhibitor, single point]"}, {"smiles": "O=C(NCCN1C(=O)S/C(=C\\c2ccc(Cl)c(Cl)c2)C1=O)c1cnccn1", "Potency": "inconclusive [inhibitor, full curve]"}, {"smiles": "O=C(Cn1nnc(-c2ccc3c(c2)OCO3)n1)NCc1ccco1", "Potency": "inactive"}, {"smiles": "O=C(CCc1ccccc1)Nc1ccccc1C(=O)NCc1ccco1", "Potency": "inconclusive [inhibitor, partial curve, poor fit]"}, {"smiles": "CC(=O)Nc1c(C)nn(-c2ccccc2)c1N1CCC(C(=O)Nc2ccc(C)cc2Cl)CC1", "Potency": "inconclusive [inhibitor, single point]"}, {"smiles": "Cc1ccc(B(O)O)cc1", "Potency": "inactive"}, {"smiles": "O=C1CCc2cc(S(=O)(=O)N3CCN(Cc4ccc5c(c4)OCO5)CC3)ccc2N1", "Potency": "inactive"}, {"smiles": "Cc1nnc(SCCc2ccccc2)[nH]c1=O", "Potency": "inconclusive [inhibitor, single point]"}, {"smiles": "OC1c2c(F)cccc2N=C2CCCCN21", "note": "(centres undefined)", "Potency": "inconclusive [inhibitor, partial curve]"}, {"smiles": "CC(=O)Nc1ccc(NC(=O)c2ccc3c(c2)CCN3S(=O)(=O)c2ccc(Cl)cc2)cc1", "Potency": "inconclusive [inhibitor, single point]"}, {"smiles": "CCc1ccc(NS(=O)(=O)c2cc(Br)cc3c2N(C(C)=O)CC3)cc1", "Potency": "inactive"}, {"smiles": "Cc1ccc(S(=O)(=O)NCc2ccccc2)cc1C(=O)NCC1CCCO1", "note": "(centres undefined)", "Potency": "inconclusive [inhibitor, single point]"}, {"smiles": "Cc1c(C(=O)N(Cc2ccco2)Cc2cccs2)oc2ccccc12", "Potency": "inconclusive [inhibitor, single point]"}, {"smiles": "CC(OC(=O)C1CCCC1)C(=O)Nc1ccc(C(N)=O)cc1", "note": "(centres undefined)", "Potency": "inactive"}, {"smiles": "COc1cc(/C=N\\N=C2/SC(CC(=O)O)C(=O)N2c2ccc(O)cc2)ccc1O", "note": "(centres undefined)", "Potency": "inactive"}, {"smiles": "C1CCC(C(CC2CCCCN2)C2CCCCC2)CC1", "note": "(centres undefined)", "Potency": "active: 2.66 µM and active: 2.91 µM and active: 11.6 µM"}, {"smiles": "C/C(=N\\NC(=O)CN1CCCCC1)c1ccccc1O", "Potency": "inconclusive [inhibitor, single point]"}, {"smiles": "FC(F)(F)Sc1ccc(NC(=S)NCc2ccccc2)cc1", "Potency": "active: 20.6 µM"}, {"smiles": "NC(=O)c1ccc(NC(=O)c2cc(S(=O)(=O)N3CCCCC3)ccc2N2CCOCC2)cc1", "Potency": "inactive"}, {"smiles": "Cc1ccc(-n2nc(C(=O)NCc3ccc(C)o3)c3c4ccccc4n(C)c3c2=O)cc1", "Potency": "inconclusive [inhibitor, single point]"}, {"smiles": "N#Cc1cccc(NC(=O)COC(=O)c2ccc[n+]([O-])c2)c1", "Potency": "inactive"}, {"smiles": "COc1ccc(-c2cc(C(=O)N3CCN(c4cccc(C)c4C)CC3)c3ccccc3n2)cc1OC", "Potency": "active: 13 µM"}, {"smiles": "CCC(C)[C@H]1CNC(=O)C(=O)N1CC(C)(C)C", "note": "(some centres undefined)", "Potency": "inactive"}, {"smiles": "O=C(c1ccc(Cl)cc1)c1ccc(OCC(O)CN2CCOCC2)cc1", "note": "(centres undefined)", "Potency": "active: 16.4 µM"}, {"smiles": "CC(O)c1nc2ccccc2n1CCCc1ccccc1", "note": "(centres undefined)", "Potency": "inactive"}, {"smiles": "CCOC(=O)/C(C#N)=C1/SC(CCO)C(=O)N1c1ccccc1", "note": "(centres undefined)", "Potency": "inconclusive [inhibitor, single point]"}, {"smiles": "NC(=S)n1[nH]c(-c2ccc([N+](=O)[O-])cc2)c(N=Nc2ccc(Cl)cc2)c1=O", "Potency": "inconclusive [inhibitor, single point]"}, {"smiles": "Cc1cc(C)cc(-n2c(SCC(=O)NCC3CCCO3)nc3c([nH]c4ccccc43)c2=O)c1", "note": "(centres undefined)", "Potency": "inconclusive [inhibitor, single point]"}, {"smiles": "CCCC1CC(C)(C(=O)CSc2n[nH]c(-c3ccccc3)n2)OC1=O", "note": "(centres undefined)", "Potency": "inconclusive [inhibitor, single point]"}, {"smiles": "CC(C)Oc1ccc(C(=O)OCC(=O)NCCNC(=O)COC(=O)c2ccc(OC(C)C)cc2)cc1", "Potency": "inactive"}, {"smiles": "COCCNC(=O)c1cccc(OC2CCN(Cc3ccc(Cl)c(F)c3)CC2)c1", "Potency": "inconclusive [inhibitor, single point]"}, {"smiles": "CCN(CC)c1ncnc2c1ncn2[C@H]1CN(Cc2ccncc2)C[C@@H](CO)O1", "Potency": "inconclusive [inhibitor, single point]"}, {"smiles": "Cn1c(=O)c(C(=O)NC2CCCCCCC2)c(O)c2ccccc21", "Potency": "active: 20.6 µM"}, {"smiles": "CC(C)(C)C(=O)c1cnc(Nc2ccccc2)s1", "Potency": "inconclusive [inhibitor, single point]"}, {"smiles": "COc1ccc2c(c1)-c1nc(NC(=O)c3ccc(C)cc3)sc1CC2", "Potency": "inconclusive [inhibitor, partial curve, poor fit]"}, {"smiles": "C#CCNC(=O)C1=C[C@@H](c2ccc(C(F)(F)F)cc2)C[C@@H](OCc2ccc(CO)cc2)O1", "Potency": "inconclusive [inhibitor, single point]"}, {"smiles": "COc1cccc(C(C)(O)c2nc(-c3cnn(C)c3)cs2)c1", "note": "(centres undefined)", "Potency": "inconclusive [inhibitor, partial curve]"}, {"smiles": "CC(=O)c1c(C)nc2ccccn12", "Potency": "inactive"}, {"smiles": "CN(CC(=O)Nc1ccc(Cl)c(C(F)(F)F)c1)C(=O)CCC(=O)c1ccccc1", "Potency": "inconclusive [inhibitor, single point]"}, {"smiles": "Cc1cc(C)c2nc(-c3cccnc3)cc(C(=O)NC(C)c3cnn(C)c3C)c2c1", "note": "(centres undefined)", "Potency": "inconclusive [inhibitor, partial curve, poor fit]"}, {"smiles": "Cc1cc(C)cc(N(C(=O)CNS(=O)(=O)c2ccccc2)C(C(=O)NCc2ccccc2)c2ccc(C)o2)c1", "note": "(centres undefined)", "Potency": "inactive"}, {"smiles": "O=S(=O)(Nc1ccc(F)cc1)c1ccc(NC(=S)Nc2ccccc2)cc1", "Potency": "inactive"}, {"smiles": "NC(=O)c1nsc(C(=O)N(CCc2ccccc2)C(C(=O)NC2CCCC2)c2ccco2)c1N", "note": "(centres undefined)", "Potency": "inconclusive [inhibitor, partial curve]"}, {"smiles": "O=C(CCc1ccccc1)NNC(=O)CCc1ccccc1", "Potency": "inactive"}, {"smiles": "CCN(Cc1ccncc1)C(=O)Cc1cccs1", "Potency": "inactive"}, {"smiles": "Cc1ccc2nc(C)c(C(=O)N/N=C/c3cccs3)n2c1", "Potency": "inconclusive [inhibitor, full curve]"}, {"smiles": "CCc1cccc(CC)c1NC(=O)c1cccc(N)c1", "Potency": "inactive"}, {"smiles": "CCCC(=O)C1=C(c2ccc(C)c(C)c2)N(C(=O)CCC)n2c(CC)nnc2S1", "Potency": "active: 23.1 µM"}, {"smiles": "COc1cccc(N(C(=O)c2ccco2)c2nc(-c3sc(NC(=O)c4ccco4)nc3C)cs2)c1", "Potency": "active: 14.6 µM"}, {"smiles": "COc1ccc(C(=O)Nc2ccc(N3CCCC3)cc2)cc1Br", "Potency": "inconclusive [inhibitor, single point]"}, {"smiles": "CCOc1ccc(CCNC(=O)c2ccc3nc(N4CCOCC4)sc3c2)cc1OCC", "Potency": "inconclusive [inhibitor, single point]"}, {"smiles": "CCCOc1ccc(/C=N/NC(=O)C(C)Sc2ccccn2)cc1OCC", "note": "(centres undefined)", "Potency": "inconclusive [inhibitor, single point]"}, {"smiles": "Cc1ccccc1-c1cc2nc(Oc3cccc(F)c3)n(C)c(=O)c2s1", "Potency": "inconclusive [inhibitor, single point]"}, {"smiles": "CC1CCN(C(=O)c2cc(-c3cccc(Cl)c3)on2)CC1", "Potency": "inconclusive [inhibitor, single point]"}, {"smiles": "COc1ccc(NC(=O)/C(C#N)=C\\c2cc(C)n(-c3ccc(Oc4ccc([N+](=O)[O-])cn4)cc3)c2C)cc1", "Potency": "inconclusive [inhibitor, full curve]"}, {"smiles": "COc1ccc(-n2nc3cc(C)c(N)cc3n2)cc1Cl", "Potency": "inactive"}, {"smiles": "O=C(Nc1nc(-c2ccccc2)c(-c2ccccc2)s1)c1ccc(S(=O)(=O)N2CCCC2)cc1", "Potency": "inconclusive [inhibitor, single point]"}]}]}
